Source: PubChem BioAssay AID1963576 (National Center for Advancing Translational Sciences (NCATS), 2024)
In all, about 46,000 compounds went through this assay and about 60 (0.1%) were called active. About 3% were inconclusive and are not listed. Calls follow the shape of the dose curve; as a rule, active = well fitted inhibition curve with a large enough effect; inconclusive = small, poorly fitted or top-dose-only effect; inactive = no such curve, though single readings can be large or run the other way. The list shows a part of the results.

Experiment: Primary qHTS assay for Inhibitors of ovarian cancer metastasis using an organotypic tumor microenvironment (TME) model. Also: nearly all actives have a fitted effect of over 65% in size.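 As to activity change, negative = inhibition: plate controls were DMSO wells for no effect and tomatine positive control wells for full effect.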
Details: SKOV3ip1-GFP adhesion/invasion on 3D omental model, fluorescence; series mostly up to 45.8 µM; activity change, negative = inhibition: at the top concentration
Outline: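 Adhesion/invasion was scored as fixed GFP-labeled SKOV3ip1 cell counts (488/509 nm), normalized to DMSO and tomatine controls. Cancer cells in serum-free medium, with four compound doses (0.36-46 umol/L), sat 2 hr at RT then 16 hr at 37 C on a 48 hr fibroblast/mesothelial/ECM culture.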

Activity change, negative = inhibition, inactive:
COc1ccc2cc3cc(C(=O)Nc4cc(C)c(Cl)cc4OC)oc3nc2c1 13.3%
CCc1cccc(CC)c1NC(=O)C1CCC(CNS(=O)(=O)c2cccc3nsnc23)CC1 (stereo not given) -14.1%
COc1cc(NC(=O)C2CCN(S(=O)(=O)c3ccc4c(c3)CCCC(=O)N4)CC2)cc(OC)c1 -9.17%
CCOc1ccccc1NC(=O)CSc1nc2c(sc3ccccc32)c(=O)n1CCCC(=O)NC1CCCC1 -13.5%
Cc1cccc(N2CCN(C(=O)c3cnn(-c4ccccc4Cl)c3C3CCN(C(=O)OC(C)(C)C)CC3)CC2C)c1 (stereo not given) -5.82%
Cc1cccc(OCc2nc(CC(=O)Nc3ccc(C)cc3C)cs2)c1 -12.6%
COc1cccc(CNC(=O)c2ccc(CNS(=O)(=O)c3ccc(C)cc3)cc2)c1 -9.68%
O=C(Nc1ccccc1C(F)(F)F)c1cc(-c2ccc3c(c2)OCCO3)on1 1.59%
CCN(CC)CCNC(=O)C(=O)NCC(c1cccnc1)N1CCN(c2ccc(F)cc2)CC1 (stereo not given) 7.23%
COc1ccc(-c2cc(C(=O)NC(C)c3ccccc3)c3cc(C(C)C)ccc3n2)cc1 (stereo not given) -6.02%
Cc1ccc(CNC(=O)Cn2c(=O)ccc3cc(S(=O)(=O)N4CCC(C)CC4)ccc32)cc1 14.9%
CCOC(=O)c1c(NC(=O)c2cc(OCC)c(OCC)c(OCC)c2)sc2c1CCCCC2 3.76%
COc1ccc(CNCCCSc2nnnn2-c2ccccc2)cc1 0.533%
CC1CCc2c(sc3nnn(CCCCOc4ccc(Cl)cc4)c(=O)c23)C1 (stereo not given) -7.96%
CCc1ccc(C2c3c(oc4ccc(F)cc4c3=O)C(=O)N2CCc2ccc(OC)cc2)cc1 (stereo not given) 1.56%
Cc1cc(=O)[nH]c2nnc(SCc3c(F)cccc3Cl)n12 6.03%
Cc1ccc(C2CCN(C(=O)Nc3ccc(Cl)cc3)C2)cc1 (stereo not given) 9.21%
Cc1nc2sccn2c(=O)c1S(=O)(=O)Nc1ccc(N2CCOCC2)cc1 9.43%
COc1ccc(N(CC(C)C)S(=O)(=O)c2nnc(NC(=O)c3cccs3)s2)cc1 -9.37%
CSc1cccc(NC(=O)C2CCN(S(=O)(=O)c3ccc4c(c3)CCCN4C(=O)C3CCC3)CC2)c1 2.46%
Cc1ccc(OCc2nc(-c3ccc(C(=O)N4CCN(c5cccc(C(F)(F)F)c5)CC4)cc3)oc2C)cc1 11.8%
CCOc1ccc2c(c1)sc1nc(=O)n(-c3ccc(Cl)c(Cl)c3)c(=O)n12 0.0956%
Cc1ccc(C(=O)Nc2ccccc2)cc1S(=O)(=O)Nc1ccc(Br)cc1 4.29%
Cc1ccc(C(=O)N2CCc3cc(CNC(=O)c4ccc(Br)cc4)ccc32)cc1 5.24%
COc1ccc(Cl)cc1NC(=O)CSc1nc2ccccc2c2nc(-c3ccccc3)nn12 6.87%
Cc1cccc(NC(=O)c2ccc3c(O)c(S(=O)(=O)c4ccccc4)c(=O)[nH]c3c2)c1C 2.02%
Cc1cccc(C)c1NC(=O)C(=O)NCC(c1ccc2c(c1)OCO2)N1CCOCC1 (stereo not given) -0.643%
COc1ccc(S(=O)(=O)N2CCN(Cc3ccc4c(c3)OCO4)CC2)cc1C 7.33%
O=S(=O)(c1ccc(-c2cc(C(F)(F)F)on2)s1)N1CCN(c2ccccc2)CC1 3.46%
COCCNC(=O)CCn1c(=O)c2cc(OC)c(OC)cc2n(CC(=O)Nc2ccccc2C)c1=O 24.8%
CCc1ccc(S(=O)(=O)c2nnn3c2nc(Nc2ccc(C)c(Cl)c2)c2sccc23)cc1 0.258%
O=C(Cn1ncn2nc(-c3cccs3)cc2c1=O)NCc1ccc(Cl)cc1 0.974%
CCOC(=O)c1c(NC(=O)COc2ccc(Br)cc2)sc2c1CCCC2 10.3%
CCc1ccccc1NC(=O)Nc1cc(C(=O)NCc2cccc(F)c2)ccc1N1CCCC1 -15.8%
CC(=O)Nc1cc(C(=O)NCc2ccc(C)cc2)ccc1S(=O)(=O)c1ccc(Cl)cc1 -9.92%
CC(C)CNC(=O)C(=O)Nc1c2c(nn1-c1ccccc1)CS(=O)(=O)C2 6.96%
CCn1c(SCc2cccc(Br)c2)nnc1-c1nonc1NC(C)=O 0.656%
Cc1cc(C)n(-c2nc3cc(Cl)ccc3nc2Nc2ccc(C)c(F)c2)n1 -0.812%
CCOc1ccccc1NC(=O)N1c2ccccc2Sc2ccccc21 -5.82%
COc1ccc(Cn2c(CCC(=O)Nc3ccc(C)cc3)nc3cccnc32)cc1 3.17%
Cc1cccc(-n2ncc(C(=O)N3CCN(Cc4ccccc4)CC3)c2C2CCN(C(=O)OC(C)(C)C)CC2)c1 2.62%
COC(=O)CN1C(=O)CSc2ccc(S(=O)(=O)Nc3ccc(C(C)=O)cc3)cc21 -7.58%
CCOc1ccc(C(=O)c2cn(CC(=O)Nc3ccc4c(c3)OCCO4)c3ccc(F)cc3c2=O)cc1 -2.15%

outcome, inactive:
CCOC(=O)c1c(S(=O)(=O)N2CCCC(C(=O)NCc3ccccc3Cl)C2)c(C)n(C)c1C (stereo not given)
O=C(Nc1ccccc1)N(Cc1c[nH]c2ccccc12)C1CCCCCC1
CCN(c1ccccc1)S(=O)(=O)c1nnc(NC(=O)c2ccccc2)s1
COc1ccc(S(=O)(=O)NCCc2sc(-c3cccnc3)nc2C)c(F)c1
Cc1c(Cl)cccc1NC(=O)CNS(=O)(=O)c1cccs1
CCOC(=O)CCn1cnc2onc(-c3cc(OC)ccc3Cl)c2c1=O
Cc1ccccc1-c1nc(CS(=O)(=O)CC(=O)NCCc2ccccc2)c(C)o1
CCOC(=O)c1cnc2c(Cl)cc(Cl)cc2c1Nc1cc(C(=O)O)ccc1C
CS(=O)(=O)NCC(c1ccco1)N1CCN(c2ccc(F)cc2)CC1 (stereo not given)
COCCCn1c(=N)c(C(=O)NCc2ccco2)cc2c(=O)n3cccc(C)c3nc21
CCOC(=O)CN1C(C(=O)c2ccccc2)=C(OC(=O)C(C)(C)C)c2ccccc2S1(=O)=O
CSc1cccc(NC(=O)Cn2c(=O)n(Cc3ccccc3)c(=O)c3sc4ccccc4c32)c1
Cc1ccc(-n2ncc(C(=O)NCCN3CCCC3)c2C2CCN(C(=O)OC(C)(C)C)CC2)cc1
Cc1cc(C)c(NC(=O)c2cc(S(=O)(=O)NCCC3=CCCCC3)ccc2F)c(C)c1
CCn1ccc2cc(S(=O)(=O)N3CCC(C(=O)NCc4cccc(Cl)c4)CC3)ccc21
Cc1ccc(NC(=O)Cn2nnc3sc4c(c3c2=O)CCC(C)C4)cc1 (stereo not given)
CCOc1ccc(N(C)S(=O)(=O)c2c(C(=O)N3CCC(C)CC3)c(C)n(C)c2C)cc1
